# From the supplement of paper PMC6206098
# ± gives the uncertainty stated by the source. The sequences are guide strands of siRNAs; only the seed at positions 2 to 7 varies.
# Legend:
# [1] = test system: 3LL; experiment: cell viability relative to siNT1 control; higher = less toxic; conditions: concentration: 10 nM; 96 h; Mus musculus;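 also: Luminescence-based viability of cells reverse transfected in 384-well plates with lipid-complexed siRNAs built on a non-toxic 19mer backbone whose passenger strand carries 2′-O-methyl groups at positions 1 and 2, triplicates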
# [2] = test system: H460; experiment: cell viability relative to lipid-only control; HeyA8 human ovarian and H460 human lung cancer; M565 mouse liver and 3LL mouse lung cancer; siNT1 is a non-toxic control siRNA; higher = less toxic; conditions: concentration: 10 nM; 96 h; Homo sapiens
# [3] = test system: HeyA8; experiment: as above; conditions: concentration: 10 nM; 96 h; Homo sapiens
# [4] = test system: M565; experiment: as above; conditions: concentration: 10 nM; 96 h; Mus musculus
# 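For cell viability relative to lipid-only control in this document: reverse lipid transfection in 384-well plates, in triplicate, of duplexes on a non-toxic 19mer backbone with passenger strand 2′-O-methylated at positions 1 and 2, luminescence viability read-out.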
Sequence,cell viability [1],cell viability [2],cell viability [3],cell viability [4]
UGUCCUUACAUGUAAACCAAA,35 ± 14%,46.1 ± 2.3%,52.2 ± 8.8%,21.2 ± 5.4%
UAGAUAGACAUGUAAACCAAA,89.7 ± 9.6%,85.3 ± 17%,80.9 ± 5.5%,54.1 ± 2%
UUUUAUGACAUGUAAACCAAA,100 ± 9.7%,70.3 ± 7.1%,98.3 ± 3.2%,96.1 ± 14%
UUAAGCAACAUGUAAACCAAA,93.7 ± 9.2%,70.6 ± 5.3%,101 ± 4.9%,81.3 ± 9.1%
UAGUCCGACAUGUAAACCAAA,70.4 ± 1.6%,80.2 ± 10%,52.7 ± 3.6%,52.3 ± 2.6%
UCGCCCAACAUGUAAACCAAA,88.1 ± 9.8%,80.5 ± 13%,83.7 ± 7%,44.7 ± 8.4%
UGAUGAGACAUGUAAACCAAA,78.1 ± 9.1%,45.9 ± 3.9%,65.8 ± 4%,24.3 ± 2.7%
UAACUACACAUGUAAACCAAA,82 ± 5.9%,61.51 ± 0.49%,78.8 ± 19%,69.4 ± 5%
UUUCCGCACAUGUAAACCAAA,35.85 ± 0.29%,55.2 ± 2.7%,69.5 ± 6%,41.5 ± 2.4%
UGGCUACACAUGUAAACCAAA,42.6 ± 8.9%,23.9 ± 1.7%,3.97 ± 0.41%,33.5 ± 7.3%
UGAGGGAACAUGUAAACCAAA,73 ± 15%,43.2 ± 3.4%,21.8 ± 1.8%,15.8 ± 3.9%
UGAGCAGACAUGUAAACCAAA,43.2 ± 9.1%,42.7 ± 7.7%,41.3 ± 5.1%,21.3 ± 4.7%
UCUCUCAACAUGUAAACCAAA,99.4 ± 22%,32.1 ± 2.1%,85.5 ± 8.3%,56.5 ± 17%
UGUGUUGACAUGUAAACCAAA,82.1 ± 6%,81.4 ± 3.9%,26 ± 8.8%,30.5 ± 6.7%
UAGUUGUACAUGUAAACCAAA,21.1 ± 7%,44 ± 7.3%,13.9 ± 1.3%,25.5 ± 4.4%
UAGAUGCACAUGUAAACCAAA,11.1 ± 1.1%,36 ± 6.5%,22 ± 2.6%,7.05 ± 2.6%
UUAUAGAACAUGUAAACCAAA,61.1 ± 7.5%,65.2 ± 4%,76 ± 4.6%,76.4 ± 18%
UCCUAGUACAUGUAAACCAAA,32.5 ± 5.7%,51.5 ± 4.5%,53.5 ± 6.9%,40.1 ± 11%
UCAUCACACAUGUAAACCAAA,73.8 ± 10%,34 ± 3.8%,58.3 ± 1.1%,71.6 ± 5.7%
UGGUCCAACAUGUAAACCAAA,68.1 ± 5.5%,23 ± 3%,22.9 ± 3.2%,22.2 ± 2.9%
UCAUAACACAUGUAAACCAAA,95.3 ± 19%,36.3 ± 1.8%,55.84 ± 0.33%,56.8 ± 14%
UAAUGCUACAUGUAAACCAAA,23.2 ± 5.7%,60.2 ± 6.7%,55.6 ± 6%,31.4 ± 10%
UUCUUCCACAUGUAAACCAAA,50.7 ± 3.9%,29.7 ± 3%,26.6 ± 3.1%,103 ± 24%
UCCUCACACAUGUAAACCAAA,82.5 ± 22%,41.6 ± 2%,76.6 ± 1.5%,30.3 ± 3.9%
UUCACUGACAUGUAAACCAAA,98 ± 14%,59.8 ± 9.9%,90.4 ± 14%,133 ± 14%
UCGGCUAACAUGUAAACCAAA,97.5 ± 16%,83.2 ± 6.8%,72.5 ± 7.8%,69.7 ± 5.5%
UAUACCAACAUGUAAACCAAA,102 ± 4.5%,67.4 ± 4.5%,95.6 ± 4.5%,95.7 ± 13%
UGCGAGUACAUGUAAACCAAA,81.2 ± 8.5%,20.9 ± 1.8%,13.5 ± 1.1%,31.8 ± 6.7%
UAACCUCACAUGUAAACCAAA,24.8 ± 5.5%,52.8 ± 3.2%,50.9 ± 2.6%,41.7 ± 2.1%
UAUGAUUACAUGUAAACCAAA,108 ± 5.8%,78.3 ± 14%,108 ± 6.1%,102 ± 16%
